# Reference: PubChem BioAssay AID1030 (National Center for Advancing Translational Sciences (NCATS), 2008)
# Out of some 220,000 compounds screened, about 16,000 (7.3%) were called active. This list was built around the results that the source calls inconclusive (neither active nor inactive); the mix of calls is not that of the screen. Calls come from the whole dose curve; as a rule, active = well fitted inhibition curve with a large enough effect (not every such curve was filed as active); inconclusive = small, poorly fitted or top-dose-only effect, or another doubt; inactive = no such curve, though single readings can be large or run the other way. Potencies of inconclusive entries are left out as doubtful fits.
# Biological target: Aldehyde dehydrogenase 1A1 (Homo sapiens) (UniProt P00352)
# Assay: qHTS Assay for Inhibitors of Aldehyde Dehydrogenase 1 (ALDH1A1)
# Settings: Purified ALDH1A1, NADH fluorescence, propionaldehyde substrate; series mostly up to 75.3 µM
# Potency is the fitted concentration of half-maximal effect; tags give direction and shape of the fitted curve.
# UniProt P00352, sequence (P00352 whole entry, looked up): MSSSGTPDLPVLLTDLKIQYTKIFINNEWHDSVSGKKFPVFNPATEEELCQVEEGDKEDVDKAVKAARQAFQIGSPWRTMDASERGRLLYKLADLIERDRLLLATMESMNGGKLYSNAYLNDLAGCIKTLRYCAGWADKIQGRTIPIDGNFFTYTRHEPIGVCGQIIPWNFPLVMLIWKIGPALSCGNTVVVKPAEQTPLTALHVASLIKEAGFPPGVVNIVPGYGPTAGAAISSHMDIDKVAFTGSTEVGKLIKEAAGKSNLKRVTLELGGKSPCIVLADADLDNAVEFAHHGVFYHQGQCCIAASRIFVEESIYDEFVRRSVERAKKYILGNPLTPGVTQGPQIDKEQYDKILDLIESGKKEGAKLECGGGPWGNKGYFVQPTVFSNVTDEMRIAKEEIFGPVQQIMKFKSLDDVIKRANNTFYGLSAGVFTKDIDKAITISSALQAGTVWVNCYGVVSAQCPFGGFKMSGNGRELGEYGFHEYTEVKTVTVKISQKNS
row,Compound,Potency
1,O=C1CCCC2=C1C1(O)C(=O)c3ccccc3C1(O)O2 (stereo not given),active: 3.98 µM
2,O=C(CSc1nc2ccccc2o1)Nc1nc(-c2ccccc2)c(-c2ccccc2)s1,"inconclusive [inhibitor, partial curve]"
3,O=C(c1ccccc1-c1ccccc1)N1CCN(c2ccccn2)CC1,"inconclusive [inhibitor, partial curve]"
4,C(=N\N1CCOCC1)/c1cn(-c2ccccc2)nc1-c1ccccc1,"inconclusive [inhibitor, single point]"
5,COc1ccc(NC(=O)c2c3c(nc4ccccc24)CCN(Cc2ccccc2)C3)c(OC)c1,"inconclusive [inhibitor, single point]"
6,C/C(CC(=O)Nc1ccccc1F)=N\NC(=O)Cc1ccc(Cl)cc1,"inconclusive [inhibitor, partial curve]"
7,O=C(CCSc1nc(-c2ccco2)cc(C(F)(F)F)n1)N1CCCc2ccccc21,active: 17.8 µM
8,O=C(/C=C\c1ccc(-c2ccccc2)o1)c1ccccc1,active: 3.98 µM
9,COc1ccc(/C=C/CN2CCN(CCc3ccccc3)C(CCO)C2)cc1 (stereo not given),"inconclusive [inhibitor, single point]"
10,COc1ccc2c(c1)c1ncn(CC3CCCO3)c(=O)c1n2C (stereo not given),"inconclusive [inhibitor, partial curve]"
11,COc1ccc(-n2c(=O)c(-c3ccc(Cl)cc3)nc3cnc(N4CCOCC4)nc32)cc1,"inconclusive [inhibitor, partial curve]"
12,CCOC(=O)c1c(C)[nH]c(C(=O)COC(=O)C2CC(=O)N(Cc3ccccc3)C2)c1C (stereo not given),"inconclusive [inhibitor, single point]"
13,CCOc1ccc2nc(SCC(=O)N3CCN(C(=O)c4ccco4)CC3)sc2c1,"inconclusive [inhibitor, single point]"
14,Cc1ccc(N=Cc2nc(-c3ccco3)oc2O)cc1,"inconclusive [inhibitor, single point]"
15,COC(=O)c1ccc(NC(=O)CNc2ccccc2)cc1,active: 22.4 µM
16,O=C(N[C@@H](Cc1ccccc1)C(=O)O)c1c(F)c(F)c(F)c(F)c1F,inactive
17,Clc1ccccc1CSc1nnc(-c2ccco2)c(-c2ccco2)n1,active: 10 µM
18,CCOc1ccc(N2CCCn3c2nc2c3c(=O)n(CCc3ccccc3)c(=O)n2C)cc1,active: 11.2 µM
19,CC1CCN(c2ccc(C(=O)Nc3ccc4c(c3)OCO4)cc2[N+](=O)[O-])CC1,"inconclusive [inhibitor, partial curve]"
20,COC(=O)c1ccc(/C=C/C(=O)c2cccc(OC)c2)cc1,inactive
21,COc1ccccc1NS(=O)(=O)c1ccc(O)c(C(=O)OCC(=O)Nc2ccccc2F)c1,"inconclusive [inhibitor, single point]"
22,CCOc1cc(NC(=S)NCc2ccco2)c(OCC)cc1NC(=O)CC(C)C,inactive
23,Cc1ccc(/C=N\Nc2cn[nH]c(=O)c2Cl)cc1,"inconclusive [inhibitor, single point]"

row,Compound,Potency
1,Cc1ccc(-c2nc3cc(NS(=O)(=O)c4ccc(C)cc4)ccc3o2)cc1,"inconclusive [inhibitor, single point]"
2,CCOC(=O)C1=C(O)/C(=C/c2ccc(-c3ccccc3C(=O)O)o2)SC1=Nc1ccc(OC)cc1,"inconclusive [inhibitor, partial curve]"
3,O=[N+]([O-])c1cc2oc3c(c2c(C=NCc2ccncc2)c1O)CCCC3,"inconclusive [inhibitor, single point]"
4,CC1=NN(c2ccccc2)C(=O)/C1=C/c1c(O)n(-c2ccc(F)cc2)[nH]c1=O,active: 20 µM
5,COc1ccc(NC(=O)C2CCN(S(=O)(=O)c3ccc(OC)c(OC)c3)CC2)c(OC)c1,inactive
6,COC(=O)c1ccc(NC(=S)NC(=O)c2c(-c3ccccc3)noc2C)cc1,"inconclusive [inhibitor, single point]"
7,Cc1ccc(/C=C2/SC(=O)N(CC(=O)N3CCOCC3)C2=O)s1,inactive
8,O=C(N=C1c2ccccc2CN1c1cccc(Cl)c1)c1cccnc1,inactive
9,O=C(C1CCCO1)N1CCN(C(=S)Nc2ccc(F)c(Cl)c2)CC1 (stereo not given),inactive
10,Cc1ccc(C(=O)NNC(=O)C2CCN(S(=O)(=O)c3ccc(Cl)cc3)CC2)cc1,inactive
11,O=C(NC(Cc1c[nH]c2ccccc12)C(=O)N1CCOCC1)c1cccs1 (stereo not given),"inconclusive [inhibitor, single point]"
12,COc1ccc(CCNC(=O)COC(=O)C23CC4CC(CC(C4)C2)C3)cc1,active: 22.4 µM
13,COC(=O)c1sc(NC(=O)/C=C/c2ccc(C)cc2)nc1C,"inconclusive [inhibitor, full curve]"
14,O=C1CC(c2ccccc2)Cc2nc3nc(C(F)(F)F)nn3cc21 (stereo not given),"inconclusive [inhibitor, partial curve, poor fit]"
15,CN(C)/C=N/C1=C(C#N)C(c2cccs2)c2ccc3ccccc3c2O1 (stereo not given),active: 0.316 µM
16,CCCC(=O)Oc1ccccc1C1SCc2cc(C)c(C)cc2CS1,inactive
17,Cc1ccc(C(=O)Nc2ccc(CN3CCS(=O)(=O)CC3)cc2)cc1C,"inconclusive [inhibitor, single point]"
18,CCOC(=O)CC1=C(C(=O)OCC)C(c2cccnc2)C(C#N)=C(N)O1 (stereo not given),"inconclusive [inhibitor, single point]"
19,Cc1ccc(N(CCC(=O)NC(C)(C)C)S(=O)(=O)c2ccc(C)cc2)cc1,inactive
20,CCc1nnc(NC(=O)CCn2cnc3ccccc3c2=O)s1,"inconclusive [inhibitor, single point]"
21,Cc1ccc(C2=NN(C3=NN=C(N)Cc4ncnn43)C(O)(C(F)(F)F)C2)cc1 (stereo not given),"inconclusive [inhibitor, partial curve]"
22,Cc1cc(C)c2cc(C#N)c(N3CCCC3)nc2c1,"inconclusive [inhibitor, partial curve]"
